Out of some 39,000 compounds screened, about 220 (0.56%) showed activity. The list shows a part of the results.
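Note: static incubation at 37 °C against the wild-type strain, values averaged over two biological replicates.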

The assay relates to Escherichia coli K-12 BW25113. The assay can be described thus: relative growth (OD600 normalised to plate interquartile mean) (fraction); higher = less growth inhibition, active = 0.2 or less. As to conditions: 50 µM; LB; incubation time: overnight (16-24 h).
With `C[C@@H]1CCCCO[C@H](CN(C)CC2CCCCC2)[C@H](C)CN([C@@H](C)CO)C(=O)c2cc(NC(=O)Cc3ccccc3)ccc2O1`, the relative growth was inactive: 0.996.
Take `C[C@@H]1CN([C@H](C)CO)C(=O)Cc2cc(NC(=O)C3CC3)ccc2O[C@@H]1CN(C)C(=O)Nc1ccccc1`: the relative growth was inactive: 1.01.
Turning to `C=CCC[C@@H](Cc1ccc(F)cc1)C(=O)OC[C@H](Cc1c[nH]c2ccccc12)NC(=O)[C@H](CC=C)CC(=O)N(CCO)Cc1ccccc1`, the relative growth is inactive: 1.1.
For `C[C@@H]1CN([C@@H](C)CO)S(=O)(=O)c2ccc(Br)cc2O[C@@H]1CN(C)S(=O)(=O)c1ccc(F)cc1`, the relative growth was inactive: 1.04.
On to `O=C(O)c1ccccn1`, for which the relative growth was inactive: 0.999.
The figure for `C[C@H](CO)N1C[C@H](C)[C@@H](CN(C)S(C)(=O)=O)OCCCC[C@H](C)Oc2ccc(NS(=O)(=O)c3ccccc3)cc2C1=O` is inactive: 1; for `C[C@@H]1CN([C@H](C)CO)C(=O)c2cccc(NC(=O)CCCCCC(=O)Nc3ccccc3N)c2O[C@@H]1CN(C)Cc1ccc(Oc2ccccc2)cc1` it is inactive: 1.03; for `C[C@@H]1CN([C@@H](C)CO)C(=O)c2cc(NS(=O)(=O)c3ccc(Cl)cc3)ccc2O[C@@H](C)CCCCO[C@@H]1CN(C)S(=O)(=O)c1cccs1` it is inactive: 1.04.
As to `CCO[C@@H]1OC(=O)C[C@@H]1NC(=O)[C@@H]1CCCN1C(=O)[C@@H](NC(=O)c1ccc(N)c(Cl)c1)C(C)(C)C`, the relative growth is inactive: 0.997.
On to `C[C@H](CO)N1C[C@H](C)[C@@H](CN(C)S(=O)(=O)c2cccc(F)c2)Oc2cc(C#CCN(C)C)ccc2S1(=O)=O`, for which the relative growth is inactive: 0.988.
The figure for `C[C@@H]1CCCCO[C@H](CN(C)S(=O)(=O)c2ccc(Cl)cc2)[C@@H](C)CN([C@@H](C)CO)C(=O)c2cc(NC(=O)NC3CCCCC3)ccc2O1` is inactive: 1.01; for `C[C@H]1CN([C@@H](C)CO)C(=O)c2cc(NC(=O)NC3CCCCC3)ccc2O[C@@H]1CN(C)Cc1ccc(-c2ccccc2)cc1` it is inactive: 1.
The figure for `C[C@H](O)C#Cc1cnc2c(c1)C(=O)N([C@@H](C)CO)C[C@H](C)[C@H](CN(C)Cc1cncnc1)O2` is inactive: 0.999; for `CCCNC(=O)N[C@@H]1CC[C@@H](CC(=O)N2CCN(C)CC2)O[C@@H]1CO` it is inactive: 1; for `COc1ccc(NC(=O)N(C)C[C@H]2Oc3c(NC(=O)C4CC4)cccc3C(=O)N([C@H](C)CO)C[C@@H]2C)cc1` it is inactive: 1.02.
The figure for `C[C@@H]1CN([C@H](C)CO)C(=O)c2cc(NC(=O)Cn3cnnn3)ccc2O[C@H]1CN(C)Cc1ccc(Cl)c(Cl)c1` is inactive: 1.01; for `C[C@@H]1CCCCO[C@H](CN(C)Cc2ccncc2)[C@H](C)CN([C@@H](C)CO)C(=O)c2cc(NC(=O)Nc3ccc(C(F)(F)F)cc3)ccc2O1` it is inactive: 0.979.
Take `C[C@H](CO)N1C[C@H](C)[C@H](CN(C)Cc2ccccc2)OCCCC[C@H](C)Oc2ccc(NS(=O)(=O)c3ccc(F)cc3)cc2C1=O`: the relative growth was inactive: 0.978.
The figure for `Cc1ccc(S(=O)(=O)N(C)C[C@H]2Oc3ccc(NC(=O)CCCN(C)C)cc3C(=O)N([C@@H](C)CO)C[C@H]2C)cc1` is inactive: 1.04.
For `C[C@@H]1CN([C@@H](C)CO)S(=O)(=O)c2ccc(C#CC(C)(C)O)cc2O[C@@H]1CN(C)C(=O)C1CCCCC1`, the relative growth is inactive: 0.983.
As for `C[C@H]1CN([C@@H](C)CO)C(=O)Cc2cc(N(C)C)ccc2O[C@@H]1CN(C)S(=O)(=O)c1ccc(F)cc1`, the relative growth was inactive: 1.02.
For `O=C(CCCCCCC(=O)Nc1ccc([C@H]2C[C@@H](CSc3nc(-c4ccccc4)c(-c4ccccc4)o3)O[C@H](c3ccccc3)O2)cc1)NO`, the relative growth was inactive: 0.974.
The figure for `C[C@H](CO)N1C[C@H](C)[C@H](CN(C)Cc2ccc3c(c2)OCO3)Oc2ncc(Br)cc2C1=O` is inactive: 1.02.
Regarding `O=C1C[C@]2(c3ccc([N+](=O)[O-])cc3)C(=O)N(CC(F)(F)F)c3cc(CO)ccc3[C@H]2N1CC12CC3CC(CC(C3)C1)C2`, the relative growth was inactive: 0.984.
Regarding `C[C@@H]1CN([C@@H](C)CO)C(=O)Cc2cc(NC(=O)C3CC3)ccc2O[C@@H]1CN(C)C(=O)NC1CCCCC1`, the relative growth is inactive: 0.972.
Regarding `CO[C@@H]1CN(C)C(=O)c2cc(NS(C)(=O)=O)ccc2OC[C@@H](C)N(C(=O)CN(C)C)C[C@H]1C`, the relative growth was inactive: 0.989.
With `C/C=C1\[C@H](O[C@@H]2O[C@H](CO)[C@@H](O)[C@H](O)[C@H]2O)OC=C(C(=O)O)[C@H]1CC(=O)OCCc1ccc(O)cc1`, the relative growth was inactive: 1.02.
Turning to `C[C@H](CO)N1C[C@H](C)[C@H](CN(C)Cc2ccc3c(c2)OCO3)OCCCC[C@H](C)Oc2ccc(NC(=O)C3CCCCC3)cc2C1=O`, the relative growth is inactive: 1.04.
With `CCCCc1nc(-c2ccc(OCCCN(CC)CC)cc2)cn1-c1ccc(Oc2ccc(Cl)cc2)cc1`, the relative growth was inactive: 0.689.
With `C[C@@H]1CN([C@H](C)CO)C(=O)Cc2cc(NC(=O)Nc3ccc(C(F)(F)F)cc3)ccc2O[C@H]1CN(C)CC1CCCCC1`, the relative growth is inactive: 1.02.
The figure for `COc1ccc(COC[C@]23NC(=S)N(C(=O)c4ccccc4)[C@H](c4ccccc4O2)[C@H]3CO[Si](C)(C)C(C)(C)C)cc1` is inactive: 1; for `COCC#Cc1ccc2c(c1)O[C@@H](CN(C)C(=O)CN(C)C)[C@H](C)CN([C@@H](C)CO)S2(=O)=O` it is inactive: 0.954; for `C[C@H](CO)N1C[C@H](C)[C@H](CN(C)S(C)(=O)=O)Oc2ncc(Br)cc2C1=O` it is inactive: 1.01.
With `O=c1[nH]snc1N1CCCCC1`, the relative growth is inactive: 0.933.
Consider `C[C@@H]1CN([C@H](C)CO)C(=O)c2cc(NC(=O)Nc3ccccc3)ccc2O[C@H]1CN(C)C(=O)Nc1cccc2ccccc12`, for which the relative growth is inactive: 1.03.
The figure for `COc1ccc(S(=O)(=O)Nc2ccc3c(c2)CC(=O)N([C@@H](C)CO)C[C@H](C)[C@H](CN(C)CC2CC2)O3)cc1` is inactive: 0.993; for `C[C@@H]1CN([C@@H](C)CO)C(=O)c2cc(NS(=O)(=O)c3ccc(F)cc3)ccc2O[C@@H](C)CCCCO[C@H]1CN(C)S(=O)(=O)c1ccc(Cl)cc1` it is inactive: 1.04.

Source of the values: the supplement of paper PMC9446081.
